Results are given in words; binding and its absence hold for the method and conditions named. In cells and extracts the contact can be indirect. Some results given as binding are weak or reduced against the parent protein; the word gives no strength.

The chains behind the UniProt entries cited, without tags or fusion partners. Where a name states a change or a piece, a line headed by the entry shows the natural chain unless it says otherwise.
UniProt Q8N884: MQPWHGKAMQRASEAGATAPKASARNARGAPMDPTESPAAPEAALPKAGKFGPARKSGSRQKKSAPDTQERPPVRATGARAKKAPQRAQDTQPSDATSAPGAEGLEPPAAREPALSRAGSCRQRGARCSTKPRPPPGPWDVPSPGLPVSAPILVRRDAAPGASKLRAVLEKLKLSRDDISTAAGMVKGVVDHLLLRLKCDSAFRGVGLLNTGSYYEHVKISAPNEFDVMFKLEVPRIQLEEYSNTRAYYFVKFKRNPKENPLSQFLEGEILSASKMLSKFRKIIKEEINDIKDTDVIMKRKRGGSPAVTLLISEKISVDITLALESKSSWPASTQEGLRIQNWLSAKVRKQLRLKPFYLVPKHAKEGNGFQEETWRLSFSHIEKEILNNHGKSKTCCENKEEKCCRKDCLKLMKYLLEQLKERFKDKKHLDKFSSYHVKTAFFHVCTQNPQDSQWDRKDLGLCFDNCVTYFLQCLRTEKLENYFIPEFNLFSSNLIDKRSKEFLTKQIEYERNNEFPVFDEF
UniProt Q99873: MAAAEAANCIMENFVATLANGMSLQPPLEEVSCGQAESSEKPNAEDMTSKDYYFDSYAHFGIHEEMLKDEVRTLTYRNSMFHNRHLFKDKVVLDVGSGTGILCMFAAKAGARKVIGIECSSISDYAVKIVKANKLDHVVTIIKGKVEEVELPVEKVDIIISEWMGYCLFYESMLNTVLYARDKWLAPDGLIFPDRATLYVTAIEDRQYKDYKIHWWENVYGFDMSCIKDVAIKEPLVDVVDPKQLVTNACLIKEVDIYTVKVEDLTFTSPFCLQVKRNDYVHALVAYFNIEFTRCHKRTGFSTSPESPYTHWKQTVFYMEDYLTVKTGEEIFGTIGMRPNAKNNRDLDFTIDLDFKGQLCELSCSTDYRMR

The source of these data is PMC10188589.

For one assay, the target named is HA-cGAS (human) (UniProt Q8N884). Put plainly: co-IP; HA immunoprecipitation from lysates of HEK293T cells co-expressing HA-cGAS and GFP-PRMT constructs; EBC lysis buffer (50 mM Tris pH 7.5, 120 mM NaCl, 0.5% NP-40), 4 °C, four washes with NETN buffer; immunoblot.
For assay [1], the target named is Endogenous PRMT1 (human (endogenous in HeLa)) (UniProt Q99873). Put plainly: co-IP; immunoprecipitation from HeLa cells with PRMT1 antibody or control IgG; endogenous proteins; immunoblot. Background: A western blot detects proteins with antibodies after separation by electrophoresis.

Consider “GFP-PRMT1 (from UniProt Q99873 1-371) (enzyme)”, for which, in the assay with HA-cGAS (human), the binding result was “binds”. Regarding “GFP-PRMT1-E162Q (from UniProt Q99873 1-371) (enzyme)”, in the assay with HA-cGAS (human), the binding entry is recorded as “no binding”.

For “GFP-PRMT1-E171A (from UniProt Q99873 1-371) (enzyme)”, the binding entry with HA-cGAS (human) was “no binding”.

For “GFP-PRMT1-G98R (from UniProt Q99873 1-371) (enzyme)”, the binding entry with HA-cGAS (human) is reported as “no binding”.

On to “endogenous cGAS (from UniProt Q8N884 1-522)”, for which, in assay [1], the binding entry is listed as “binds”.
